Measured values published in article PMC6265451.
Results are given in words; binding and its absence hold for the method and conditions named. Some entries that bind do so weakly or less than the wild type.

T1: Pta1-TAPS (S. cerevisiae) (UniProt Q01329)
T1 sequence: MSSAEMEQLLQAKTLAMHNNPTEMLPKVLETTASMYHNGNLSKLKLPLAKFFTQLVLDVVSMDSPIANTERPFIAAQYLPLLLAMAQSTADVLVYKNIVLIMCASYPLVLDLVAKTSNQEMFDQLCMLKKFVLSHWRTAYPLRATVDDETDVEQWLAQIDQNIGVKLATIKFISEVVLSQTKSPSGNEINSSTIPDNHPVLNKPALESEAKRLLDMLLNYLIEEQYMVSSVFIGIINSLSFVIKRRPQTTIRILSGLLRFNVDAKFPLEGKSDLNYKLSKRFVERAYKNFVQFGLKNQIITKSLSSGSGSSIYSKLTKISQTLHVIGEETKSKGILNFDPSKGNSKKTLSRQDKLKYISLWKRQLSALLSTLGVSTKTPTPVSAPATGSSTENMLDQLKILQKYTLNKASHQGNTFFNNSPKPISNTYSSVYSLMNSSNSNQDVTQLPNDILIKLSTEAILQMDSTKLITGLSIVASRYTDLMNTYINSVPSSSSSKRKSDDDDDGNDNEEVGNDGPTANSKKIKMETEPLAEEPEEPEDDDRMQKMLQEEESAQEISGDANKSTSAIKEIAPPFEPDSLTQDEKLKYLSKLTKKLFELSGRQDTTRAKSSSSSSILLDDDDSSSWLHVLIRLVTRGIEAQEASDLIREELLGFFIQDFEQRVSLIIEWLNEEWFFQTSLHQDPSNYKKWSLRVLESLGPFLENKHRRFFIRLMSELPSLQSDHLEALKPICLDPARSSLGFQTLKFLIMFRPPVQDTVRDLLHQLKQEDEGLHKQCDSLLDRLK

T2: Mpe1-TAPS (S. cerevisiae) (UniProt P35728)
T2 sequence: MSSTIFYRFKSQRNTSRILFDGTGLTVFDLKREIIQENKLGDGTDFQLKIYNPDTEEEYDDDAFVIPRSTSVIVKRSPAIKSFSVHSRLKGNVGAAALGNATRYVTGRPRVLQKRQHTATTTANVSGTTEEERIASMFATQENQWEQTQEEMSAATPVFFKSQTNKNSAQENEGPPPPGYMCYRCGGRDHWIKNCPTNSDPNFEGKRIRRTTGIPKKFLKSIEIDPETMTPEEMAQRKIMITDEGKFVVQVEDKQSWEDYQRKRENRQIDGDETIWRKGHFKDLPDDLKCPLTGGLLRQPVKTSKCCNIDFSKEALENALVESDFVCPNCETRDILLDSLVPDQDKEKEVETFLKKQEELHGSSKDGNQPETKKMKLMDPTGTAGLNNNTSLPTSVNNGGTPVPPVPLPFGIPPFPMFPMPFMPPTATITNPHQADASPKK

T3: Syc1-TAPS (S. cerevisiae) (UniProt Q08553)
T3 sequence: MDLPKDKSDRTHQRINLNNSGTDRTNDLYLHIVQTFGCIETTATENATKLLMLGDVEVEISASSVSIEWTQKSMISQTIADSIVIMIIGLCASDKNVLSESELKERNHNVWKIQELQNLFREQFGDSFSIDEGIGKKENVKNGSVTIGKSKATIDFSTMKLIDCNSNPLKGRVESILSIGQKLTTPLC

T4: Ref2-TAPS (S. cerevisiae) (UniProt P42073)
T4 sequence: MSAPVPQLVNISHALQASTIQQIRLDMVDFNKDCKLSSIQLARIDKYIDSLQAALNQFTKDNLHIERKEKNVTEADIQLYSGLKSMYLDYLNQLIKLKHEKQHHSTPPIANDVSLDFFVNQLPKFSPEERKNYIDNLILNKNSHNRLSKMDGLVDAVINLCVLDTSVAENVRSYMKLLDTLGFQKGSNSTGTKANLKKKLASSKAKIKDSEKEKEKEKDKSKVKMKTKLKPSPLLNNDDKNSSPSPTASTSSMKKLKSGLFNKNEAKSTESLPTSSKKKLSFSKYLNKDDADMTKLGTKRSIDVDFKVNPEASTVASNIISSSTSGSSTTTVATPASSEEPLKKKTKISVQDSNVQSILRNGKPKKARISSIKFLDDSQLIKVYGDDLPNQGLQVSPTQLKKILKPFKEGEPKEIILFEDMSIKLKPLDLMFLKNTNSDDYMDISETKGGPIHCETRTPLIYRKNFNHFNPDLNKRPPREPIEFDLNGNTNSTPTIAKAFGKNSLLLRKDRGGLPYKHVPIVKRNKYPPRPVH

T5: Mpe1-TAPS (S. cerevisiae), P35728
T5 chain: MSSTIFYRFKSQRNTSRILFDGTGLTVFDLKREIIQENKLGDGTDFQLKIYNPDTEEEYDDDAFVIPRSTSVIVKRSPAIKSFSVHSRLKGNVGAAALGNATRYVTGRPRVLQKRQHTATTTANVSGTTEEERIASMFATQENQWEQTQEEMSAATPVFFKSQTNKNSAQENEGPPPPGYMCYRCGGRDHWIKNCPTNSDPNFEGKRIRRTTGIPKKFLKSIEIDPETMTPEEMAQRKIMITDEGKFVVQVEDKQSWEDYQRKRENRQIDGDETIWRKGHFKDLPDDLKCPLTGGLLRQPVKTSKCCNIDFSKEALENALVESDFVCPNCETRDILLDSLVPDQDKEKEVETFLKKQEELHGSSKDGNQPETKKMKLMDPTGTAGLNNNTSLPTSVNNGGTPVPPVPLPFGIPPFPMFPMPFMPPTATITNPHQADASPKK


What was measured:
[1] = biological target: T1, Pta1-TAPS (S. cerevisiae); experiment: SEC; TAPS affinity purification from tagged yeast strain, then Superose 6 PC 3.2/30 in 20 mM HEPES pH 7.9, 150 mM KCl, 3 mM DTT, 0.5 mM Mg(OAc)2, 0.5 mM MnCl2; fractions on Coomassie-stained SDS-PAGE
[2] = biological target: T2, Mpe1-TAPS (S. cerevisiae); experiment: as above
[3] = biological target: T3, Syc1-TAPS (S. cerevisiae); experiment: as above
[4] = biological target: T4, Ref2-TAPS (S. cerevisiae); experiment: as above
[5] = biological target: Pap1-TAPS (S. cerevisiae) (UniProt P29468); experiment: as above
[6] = biological target: T1, Pta1-TAPS (S. cerevisiae); experiment: anion exchange chromatography; TAPS affinity purification from tagged yeast strain (Ref2-tagged; Pta1-tagged with SYC1 deleted), then Mono Q 5/50 GL in 20 mM HEPES pH 7.9, 150 mM KCl, 3 mM DTT, 0.5 mM Mg(OAc)2; APT eluted at 260 mM KCl and CPF at 400 mM KCl
[7] = biological target: T4, Ref2-TAPS (S. cerevisiae); experiment: as above
[8] = biological target: T5, Mpe1-TAPS (S. cerevisiae), P35728; experiment: SEC; TAPS affinity purification from tagged yeast strain, then Superose 6 PC 3.2/30 in 20 mM HEPES pH 7.9, 150 mM KCl, 3 mM DTT, 0.5 mM Mg(OAc)2, 0.5 mM MnCl2; fractions on Coomassie-stained SDS-PAGE; conditions: remark: other sources report otherwise

| binding [1] | binding [2] | binding [3] | binding [4] | binding [5] | binding [6] | binding [7] | binding [8] | Binder |
| --- | --- | --- | --- | --- | --- | --- | --- | --- |
| binds | binds | no binding | binds | binds | binds | binds |  | Cft2 (protein, UniProt Q12102 1-859) MTYKYNCCDDGSGTTVGSVVRFDNVTLLIDPGWNPSKVSYEQCIKYWEKVIPEIDVIILSQPTIECLGAHSLLYYNFTSHFISRIQVYATLPVINLGRVSTIDSYASAGVIGPYDTNKLDLEDIEISFDHIVPLKYSQLVDLRSRYDGLTLLAYNAGVCPGGSIWCISTYSEKLVYAKRWNHTRDNILNAASILDATGKPLSTLMRPSAIITTLDRFGSSQPFKKRSKIFKDTLKKGLSSDGSVIIPVDMSGKFLDLFTQVHELLFESTKINAHTQVPVLILSYARGRTLTYAKSMLEWLSPSLLKTWENRNNTSPFEIGSRIKIIAPNELSKYPGSKICFVSEVGALINEVIIKVGNSEKTTLILTKPSFECASSLDKILEIVEQDERNWKTFPEDGKSFLCDNYISIDTIKEEPLSKEETEAFKVQLKEKKRDRNKKILLVKRESKKLANGNAIIDDTNGERAMRNQDILVENVNGVPPIDHIMGGDEDDDEEEENDNLLNLLKDNSEKSAAKKNTEVPVDIIIQPSAASKHKMFPFNPAKIKKDDYGTVVDFTMFLPDDSDNVNQNSRKRPLKDGAKTTSPVNEEDNKNEEEDGYNMSDPISKRSKHRASRYSGFSGTGEAENFDNLDYLKIDKTLSKRTISTVNVQLKCSVVILNLQSLVDQRSASIIWPSLKSRKIVLSAPKQIQNEEITAKLIKKNIEVVNMPLNKIVEFSTTIKTLDISIDSNLDNLLKWQRISDSYTVATVVGRLVKESLPQVNNHQKTASRSKLVLKPLHGSSRSHKTGALSIGDVRLAQLKKLLTEKNYIAEFKGEGTLVINEKVAVRKINDAETIIDGTPSELFDTVKKLVTDMLAKI |
| binds | binds | no binding | binds | binds | binds | binds |  | Ysh1 (enzyme, UniProt Q06224 1-779) MERTNTTTFKFFSLGGSNEVGRSCHILQYKGKTVMLDAGIHPAYQGLASLPFYDEFDLSKVDILLISHFHLDHAASLPYVMQRTNFQGRVFMTHPTKAIYRWLLRDFVRVTSIGSSSSSMGTKDEGLFSDEDLVDSFDKIETVDYHSTVDVNGIKFTAFHAGHVLGAAMFQIEIAGLRVLFTGDYSREVDRHLNSAEVPPLSSNVLIVESTFGTATHEPRLNRERKLTQLIHSTVMRGGRVLLPVFALGRAQEIMLILDEYWSQHADELGGGQVPIFYASNLAKKCMSVFQTYVNMMNDDIRKKFRDSQTNPFIFKNISYLRNLEDFQDFGPSVMLASPGMLQSGLSRDLLERWCPEDKNLVLITGYSIEGTMAKFIMLEPDTIPSINNPEITIPRRCQVEEISFAAHVDFQENLEFIEKISAPNIILVHGEANPMGRLKSALLSNFASLKGTDNEVHVFNPRNCVEVDLEFQGVKVAKAVGNIVNEIYKEENVEIKEEIAAKIEPIKEENEDNLDSQAEKGLVDEEEHKDIVVSGILVSDDKNFELDFLSLSDLREHHPDLSTTILRERQSVRVNCKKELIYWHILQMFGEAEVLQDDDRVTNQEPKVKEESKDNLTNTGKLILQIMGDIKLTIVNTLAVVEWTQDLMNDTVADSIIAILMNVDSAPASVKLSSHSCDDHDHNNVQSNAQGKIDEVERVKQISRLFKEQFGDCFTLFLNKDEYASNKEETITGVVTIGKSTAKIDFNNMKILECNSNPLKGRVESLLNIGGNLVTPLC |
|  |  |  |  |  |  |  | binds | Pap1, P29468 1-568 (enzyme) MSSQKVFGITGPVSTVGATAAENKLNDSLIQELKKEGSFETEQETANRVQVLKILQELAQRFVYEVSKKKNMSDGMARDAGGKIFTYGSYRLGVHGPGSDIDTLVVVPKHVTREDFFTVFDSLLRERKELDEIAPVPDAFVPIIKIKFSGISIDLICARLDQPQVPLSLTLSDKNLLRNLDEKDLRALNGTRVTDEILELVPKPNVFRIALRAIKLWAQRRAVYANIFGFPGGVAWAMLVARICQLYPNACSAVILNRFFIILSEWNWPQPVILKPIEDGPLQVRVWNPKIYAQDRSHRMPVITPAYPSMCATHNITESTKKVILQEFVRGVQITNDIFSNKKSWANLFEKNDFFFRYKFYLEITAYTRGSDEQHLKWSGLVESKVRLLVMKLEVLAGIKIAHPFTKPFESSYCCPTEDDYEMIQDKYGSHKTETALNALKLVTDENKEEESIKDAPKAYLSTMYIGLDFNIENKKEKVDIHIPCTEFVNLCRSFNEDYGDHKVFNLALRFVKGYDLPDEVFDENEKRPSKKSKRKNLDARHETVKRSKSDAASGDNINGTTAAVDVN |
| binds | binds | no binding | binds | binds | binds | binds |  | Pfs2 (protein, UniProt P42841 1-465) MDGHNQNQYQNQNQIQQSQQPPLKKYVTQRRSVDVSSPYINLYYNRRHGLPNLVVEPETSYTIDIMPPNAYRGRDRVINLPSKFTHLSSNKVKHVIPAIQWTPEGRRLVVATYSGEFSLWNASSFTFETLMQAHDSAVTTMKYSHDSDWMISGDADGMIKIWQPNFSMVKEIDAAHTESIRDMAFSSNDSKFVTCSDDNILKIWNFSNGKQERVLSGHHWDVKSCDWHPEMGLIASASKDNLVKLWDPRSGNCISSILKFKHTVLKTRFQPTKGNLLMAISKDKSCRVFDIRYSMKELMCVRDETDYMTLEWHPINESMFTLACYDGSLKHFDLLQNLNEPILTIPYAHDKCITSLSYNPVGHIFATAAKDRTIRFWTRARPIDPNAYDDPTYNNKKINGWFFGINNDINAVREKSEFGAAPPPPATLEPHALPNMNGFINKKPRQEIPGIDSNIKSSTLPGLSI |
